From the supplement of paper PMC4967469
Lines with a small IC50 respond at low doses; a fit beyond the top or the lowest dose is shown as a bound at that dose. AUC, from the same fit, is the share of area under the viability curve across the 256-fold dose range; it is 1 without any effect and falls as sensitivity rises. For some of these results: The top dose, if marked as inferred, comes from the curve model; the source does not state it.

How the values were obtained:
Experiment in all cases: Viability of human cancer cell lines after 72 h of drug (GDSC screen)
Axitinib = compound: CNC(=O)c1ccccc1Sc1ccc2c(/C=C/c3ccccn3)n[nH]c2c1 [Axitinib]; details: top dose 2 µM
Procedure: (§1)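 Human cancer cell lines in 384-well plates, medium with 10% serum, drug for 72 h over a 256-fold dose range (nine 2-fold or five 4-fold steps up to the top dose). Adherent lines were fixed and stained with the nucleic acid dye Syto60, suspension lines read with resazurin; signal relative to control wells, capped at 0 and 100%. One two-parameter sigmoid per drug and line, fitted in a mixed model over all curves with the slope shared within a line.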

Dabrafenib = compound: CC(C)(C)c1nc(-c2cccc(NS(=O)(=O)c3c(F)cccc3F)c2F)c(-c2ccnc(N)n2)s1 [Dabrafenib]; details: top dose 10 µM
Procedure: as §1

SN-38 = compound: CCc1c2c(nc3ccc(O)cc13)-c1cc3c(c(=O)n1C2)COC(=O)[C@]3(O)CC [SN-38]; details: top dose 0.05 µM; top dose inferred
Procedure: as §1

Vorinostat = compound: O=C(CCCCCCC(=O)Nc1ccccc1)NO [Vorinostat]; details: top dose 10 µM
Procedure: as §1

Methotrexate = compound: CN(Cc1cnc2nc(N)nc(N)c2n1)c1ccc(C(=O)N[C@@H](CCC(=O)O)C(=O)O)cc1 [Methotrexate]; details: top dose 0.2 µM
Procedure: as §1

Cell Line	AUC (Axitinib)	IC50 (Axitinib)	AUC (Dabrafenib)	IC50 (Dabrafenib)	AUC (SN-38)	IC50 (SN-38)	AUC (Vorinostat)	IC50 (Vorinostat)	AUC (Methotrexate)	IC50 (Methotrexate)
RERF-LC-Sq1 (lung squamous cell carcinoma, adherent)	0.967	> 2000 nM	0.97	> 10000 nM	0.949	> 50 nM	0.726	3790 nM	0.939	> 200 nM
SW13 (adrenal gland, adherent)	0.968	> 2000 nM	0.934	> 10000 nM	0.418	1.86 nM	0.754	3420 nM	0.982	> 200 nM
ONS-76 (medulloblastoma, adherent)	0.88	> 2000 nM	0.699	2390 nM	0.489	2.92 nM	0.667	1900 nM	0.737	63.3 nM
HCC-56 (large intestine, adherent)	0.953	> 2000 nM	0.982	> 10000 nM	0.824	30.6 nM	0.827	6320 nM	0.898	> 200 nM
PANC-08-13 (pancreas, adherent)	0.97	> 2000 nM	0.981	> 10000 nM	0.946	> 50 nM	0.724	3280 nM	0.963	> 200 nM
NB10 (neuroblastoma, adherent)	0.788	852 nM	0.971	> 10000 nM	0.31	0.928 nM	0.548	841 nM	0.974	> 200 nM
PCI-30 (head and neck, adherent)	0.902	> 2000 nM	0.972	> 10000 nM	0.746	19 nM	0.667	2040 nM	0.981	> 200 nM
NCC010 (kidney, adherent)	0.956	> 2000 nM	0.907	> 10000 nM	0.781	22.2 nM	0.822	6390 nM	0.927	> 200 nM
ETK-1 (biliary tract, adherent)	0.937	> 2000 nM	0.95	> 10000 nM	0.797	27.3 nM	0.761	4000 nM	0.917	> 200 nM
HCC-78 (lung adenocarcinoma, adherent)	0.959	> 2000 nM	0.981	> 10000 nM	0.468	2.52 nM	0.669	2010 nM	0.886	> 200 nM
MFE-280 (endometrium, adherent)	0.964	> 2000 nM	0.979	> 10000 nM	0.927	> 50 nM	0.803	6610 nM	0.976	> 200 nM
D-247MG (glioma, adherent)	0.943	> 2000 nM	0.938	> 10000 nM	0.804	36.8 nM	0.862	> 10000 nM	0.975	> 200 nM
SNG-M (endometrium, adherent)	0.959	> 2000 nM	0.349	241 nM	0.418	1.87 nM	0.769	3700 nM	0.977	> 200 nM
L-428 (Hodgkin lymphoma, suspension)	0.983	> 2000 nM	0.989	> 10000 nM	0.944	> 50 nM	0.651	1550 nM	0.722	48.6 nM
D-283MED (medulloblastoma, adherent)	0.953	> 2000 nM	0.99	> 10000 nM	0.768	17.2 nM	0.507	651 nM	0.982	> 200 nM
H2373 (mesothelioma, adherent)	0.861	> 2000 nM	0.949	> 10000 nM	0.611	6.82 nM	0.698	2620 nM	0.983	> 200 nM
MEL-JUSO (melanoma, adherent)	0.93	> 2000 nM	0.912	> 10000 nM	0.666	9.62 nM	0.782	4710 nM	0.969	> 200 nM
COLO-684 (endometrium, suspension)	0.953	> 2000 nM	0.983	> 10000 nM	0.909	> 50 nM	0.827	7140 nM	0.573	20.3 nM
PE/CA-PJ15 (head and neck, adherent)	0.986	> 2000 nM	0.964	> 10000 nM	0.555	4.47 nM	0.728	2960 nM	0.983	> 200 nM
P12-ICHIKAWA (T-cell lymphoblastic leukaemia, suspension)	0.934	> 2000 nM	0.994	> 10000 nM	0.433	2.14 nM	0.55	828 nM	0.628	25.9 nM

Cell Line	AUC (Axitinib)	IC50 (Axitinib)	AUC (Dabrafenib)	IC50 (Dabrafenib)	AUC (SN-38)	IC50 (SN-38)	AUC (Vorinostat)	IC50 (Vorinostat)	AUC (Methotrexate)	IC50 (Methotrexate)
NCI-H1694 (small cell lung carcinoma, suspension)	0.944	> 2000 nM	0.988	> 10000 nM	0.734	14.4 nM	0.646	1580 nM	0.989	> 200 nM
LOU-NH91 (lung squamous cell carcinoma, adherent)	0.956	> 2000 nM	0.744	3360 nM	0.666	9.49 nM	0.776	4360 nM	0.986	> 200 nM
NCI-H1105 (small cell lung carcinoma, suspension)	0.906	1870 nM	0.993	> 10000 nM	0.162	0.382 nM	0.519	698 nM	0.953	> 200 nM
EFO-27 (ovary, adherent)	0.972	> 2000 nM	0.805	6620 nM	0.843	49.4 nM	0.622	1480 nM	0.872	> 200 nM
DIFI (large intestine, adherent)	0.915	> 2000 nM	0.962	> 10000 nM	0.916	> 50 nM	0.554	883 nM	0.983	> 200 nM
DSH1 (bladder, adherent)	0.989	> 2000 nM	0.988	> 10000 nM	0.72	12.7 nM	0.701	2230 nM	0.91	> 200 nM
SJRH30 (rhabdomyosarcoma, adherent)	0.943	> 2000 nM	0.976	> 10000 nM	0.709	12.4 nM	0.408	348 nM	0.895	> 200 nM
LS-180 (large intestine, adherent)	0.978	> 2000 nM	0.972	> 10000 nM	0.42	1.83 nM	0.909	> 10000 nM	0.964	> 200 nM
NCI-H1304 (small cell lung carcinoma, suspension)	0.988	> 2000 nM	0.986	> 10000 nM	0.939	> 50 nM	0.883	> 10000 nM	0.98	> 200 nM
KP-N-YN (neuroblastoma, adherent)	0.969	> 2000 nM	0.983	> 10000 nM	0.764	19.9 nM	0.801	5410 nM	0.986	> 200 nM
SISO (cervix, adherent)	0.954	> 2000 nM	0.935	> 10000 nM	0.472	2.63 nM	0.656	1660 nM	0.924	> 200 nM
D-542MG (glioma, adherent)	0.95	> 2000 nM	0.981	> 10000 nM	0.909	> 50 nM	0.948	> 10000 nM	0.984	> 200 nM
TT2609-C02 (thyroid, adherent)	0.859	1840 nM	0.956	> 10000 nM	0.803	26.7 nM	0.63	1460 nM	0.866	199 nM
8305C (thyroid, adherent)	0.96	> 2000 nM	0.434	389 nM	0.79	30.3 nM	0.731	3550 nM	0.833	190 nM
BB49-HNC (head and neck, adherent)	0.966	> 2000 nM	0.552	916 nM	0.565	5.04 nM	0.882	> 10000 nM	0.972	> 200 nM
WM278 (melanoma, adherent)	0.949	> 2000 nM	0.456	466 nM	0.647	8.45 nM	0.858	9940 nM	0.984	> 200 nM
T-T (oesophagus, adherent)	0.939	> 2000 nM	0.922	> 10000 nM	0.695	11 nM	0.617	1310 nM	0.94	> 200 nM
NCI-SNU-16 (stomach, suspension)	0.817	956 nM	0.979	> 10000 nM	0.844	29.8 nM	0.692	2000 nM	0.946	> 200 nM
K2 (melanoma, adherent)	0.868	> 2000 nM	0.159	< 39.1 nM	0.739	18.8 nM	0.744	3930 nM	0.982	> 200 nM
NCI-H2347 (lung adenocarcinoma, adherent)	0.983	> 2000 nM	0.895	> 10000 nM	0.796	29.2 nM	0.897	> 10000 nM	0.978	> 200 nM
